# Source: the supplement of paper PMC8728848
# The list shows a part of the results.
# B1: MGL6A (Homo sapiens) (protein)
# chain: MTRTYENFQYLENKVKVQGFKNGPLPLQSLLQRLCSGPCHLLLSLGLGLLLLVIICVVGFQNSKFQRDLVTLRTDFSNFTSNTVAEIQALTSQGSSLEETIASLKAEVEGFKQERQAVHSEMLLRVQQLVQDLKKLTCQVATLNNNGEEASTEGTCCPVNWVEHQDSCYWFSHSGMSWAEAEKYCQLKNAHLVVINSREEQNFVQKYLGSAYTWMGLSDPEGAWKWVDGTDYATGFQNWKPGQPDDWQGHGLGGGEDCAHFHPDGRWNDDVCQRPYHWVCEAGLGQTSQESH
# Tests used:
# Assay in all cases: glycan array binding signal (z-score within array); higher = stronger binding
# Details in all cases: glycan notation: IUPAC condensed, linker removed
# [1] = target: Gal(b1-3)[GlcNAc(b1-6)]GalNAc
# Procedure, shortened: (§1)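 Glycan array binding is given as a within-array Z-score, which can be read as non-binding when negative. The arrays, 3228 of them, came from the Consortium for Functional Glycomics database and were retained only where the protein sequence was available. Z-scores were averaged across arrays of the same protein sequence at different concentrations or buffers and across linkers.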
# [2] = target: Gal(b1-3)[Neu5Ac(a2-6)]GalNAc
# Procedure, shortened: as §1
# [3] = target: Gal(b1-3)[Neu5Ac(a2-6)]GlcNAc(b1-4)Gal(b1-4)Glc
# Procedure, shortened: as §1
# [4] = target: Gal(b1-3)[Neu5Ac(a2-6)]GlcNAc(b1-6)Gal(b1-4)Glc
# Procedure, shortened: as §1
# [5] = target: Gal(b1-3)[Neu5Ac(b2-6)]GalNAc
# Procedure, shortened: as §1
# Gal(b1-4)Gal = target: Gal(b1-4)Gal
# Procedure, shortened: as §1
# [6] = target: Gal(b1-4)GalNAc(a1-3)[Fuc(a1-2)]Gal(b1-4)GlcNAc
# Procedure, shortened: as §1
# [7] = target: Gal(b1-4)GalNAc(b1-3)[Fuc(a1-2)]Gal(b1-4)GlcNAc
# Procedure, shortened: as §1
# Gal(b1-4)Glc = target: Gal(b1-4)Glc
# Procedure, shortened: as §1
# Gal(b1-4)Glc6S = target: Gal(b1-4)Glc6S
# Procedure, shortened: as §1
# Gal(b1-4)GlcNAc = target: Gal(b1-4)GlcNAc
# Procedure, shortened: as §1
# [8] = target: Gal(b1-4)GlcNAc(a1-6)Gal(b1-4)GlcNAc
# Procedure, shortened: as §1
# Gal(b1-4)GlcNAc(b1-2)Man = target: Gal(b1-4)GlcNAc(b1-2)Man
# Procedure, shortened: as §1
# [9] = target: Gal(b1-4)GlcNAc(b1-2)Man(a1-3)Man(b1-4)GlcNAc(b1-4)GlcNAc
# Procedure, shortened: as §1
# [10] = target: Gal(b1-4)GlcNAc(b1-2)Man(a1-3)[Gal(b1-4)GlcNAc(b1-2)Man(a1-6)]Man(b1-4)GlcNAc(b1-4)GlcNAc
# Procedure, shortened: as §1
# [11] = target: Gal(b1-4)GlcNAc(b1-2)Man(a1-3)[Gal(b1-4)GlcNAc(b1-2)Man(a1-6)]Man(b1-4)GlcNAc(b1-4)[Fuc(a1-6)]GlcNAc
# Procedure, shortened: as §1
# [12] = target: Gal(b1-4)GlcNAc(b1-2)Man(a1-3)[Gal(b1-4)GlcNAc(b1-2)Man(a1-6)][Gal(b1-4)GlcNAc(b1-4)]Man(b1-4)GlcNAc(b1-4)[Fuc(a1-6)]GlcNAc
# Procedure, shortened: as §1
# [13] = target: Gal(b1-4)GlcNAc(b1-2)Man(a1-3)[Gal(b1-4)GlcNAc(b1-2)Man(a1-6)][GlcNAc(b1-4)]Man(b1-4)GlcNAc(b1-4)[Fuc(a1-6)]GlcNAc
# Procedure, shortened: as §1
# [14] = target: Gal(b1-4)GlcNAc(b1-2)Man(a1-3)[GlcNAc(b1-2)Man(a1-6)]Man(b1-4)GlcNAc(b1-4)GlcNAc
# Procedure, shortened: as §1
# [15] = target: Gal(b1-4)GlcNAc(b1-2)Man(a1-3)[GlcNAc(b1-4)][Gal(b1-4)GlcNAc(b1-2)Man(a1-6)]Man(b1-4)GlcNAc(b1-4)GlcNAc
# Procedure, shortened: as §1
# [16] = target: Gal(b1-4)GlcNAc(b1-2)Man(a1-3)[Man(a1-6)]Man(b1-4)GlcNAc(b1-4)GlcNAc
# Procedure, shortened: as §1
# [17] = target: Gal(b1-4)GlcNAc(b1-2)Man(a1-6)Man(b1-4)GlcNAc(b1-4)GlcNAc
# Procedure, shortened: as §1
# [18] = target: Gal(b1-4)GlcNAc(b1-2)Man(a1-6)[GlcNAc(b1-2)Man(a1-3)]Man(b1-4)GlcNAc(b1-4)GlcNAc
# Procedure, shortened: as §1
# [19] = target: Gal(b1-4)GlcNAc(b1-2)Man(a1-6)[Man(a1-3)]Man(b1-4)GlcNAc(b1-4)GlcNAc
# Procedure, shortened: as §1
# [20] = target: Gal(b1-4)GlcNAc(b1-2)[Gal(b1-4)GlcNAc(b1-4)]Man(a1-3)[Gal(b1-4)GlcNAc(b1-2)Man(a1-6)]Man(b1-4)GlcNAc(b1-4)GlcNAc
# Procedure, shortened: as §1
# [21] = target: Gal(b1-4)GlcNAc(b1-2)[Gal(b1-4)GlcNAc(b1-4)]Man(a1-3)[Gal(b1-4)GlcNAc(b1-2)[Gal(b1-4)GlcNAc(b1-6)]Man(a1-6)]Man(b1-4)GlcNAc(b1-4)GlcNAc
# Procedure, shortened: as §1
# [22] = target: Gal(b1-4)GlcNAc(b1-2)[Gal(b1-4)GlcNAc(b1-4)]Man(a1-3)[GlcNAc(b1-4)][Gal(b1-4)GlcNAc(b1-2)Man(a1-6)]Man(b1-4)GlcNAc(b1-4)GlcNAc
# Procedure, shortened: as §1
# [23] = target: Gal(b1-4)GlcNAc(b1-2)[Gal(b1-4)GlcNAc(b1-4)]Man(a1-3)[GlcNAc(b1-4)][Gal(b1-4)GlcNAc(b1-2)[Gal(b1-4)GlcNAc(b1-6)]Man(a1-6)]Man(b1-4)GlcNAc(b1-4)GlcNAc
# Procedure, shortened: as §1
# [24] = target: Gal(b1-4)GlcNAc(b1-2)[Gal(b1-4)GlcNAc(b1-6)]Man(a1-6)[Gal(b1-4)GlcNAc(b1-2)Man(a1-3)]Man(b1-4)GlcNAc(b1-4)GlcNAc
# Procedure, shortened: as §1
# [25] = target: Gal(b1-4)GlcNAc(b1-2)[Gal(b1-4)GlcNAc(b1-6)]Man(a1-6)[Gal(b1-4)GlcNAc(b1-2)Man(a1-3)]Man(b1-4)GlcNAc(b1-4)[Fuc(a1-6)]GlcNAc
# Procedure, shortened: as §1
# [26] = target: Gal(b1-4)GlcNAc(b1-2)[Gal(b1-4)GlcNAc(b1-6)]Man(a1-6)[GlcNAc(b1-4)][Gal(b1-4)GlcNAc(b1-2)Man(a1-3)]Man(b1-4)GlcNAc(b1-4)GlcNAc
# Procedure, shortened: as §1
# [27] = target: Gal(b1-4)GlcNAc(b1-2)[Gal(b1-4)GlcNAc(b1-6)]Man(a1-6)[GlcNAc(b1-4)][Gal(b1-4)GlcNAc(b1-2)[Gal(b1-4)GlcNAc(b1-4)]Man(a1-3)]Man(b1-4)GlcNAc(b1-4)[Fuc(a1-6)]GlcNAc
# Procedure, shortened: as §1
# [28] = target: Gal(b1-4)GlcNAc(b1-3)Gal(b1-3)GalNAc
# Procedure, shortened: as §1
# [29] = target: Gal(b1-4)GlcNAc(b1-3)Gal(b1-3)GlcNAc
# Procedure, shortened: as §1
# [30] = target: Gal(b1-4)GlcNAc(b1-3)Gal(b1-4)Glc
# Procedure, shortened: as §1
# [31] = target: Gal(b1-4)GlcNAc(b1-3)Gal(b1-4)GlcNAc
# Procedure, shortened: as §1
# [32] = target: Gal(b1-4)GlcNAc(b1-3)Gal(b1-4)GlcNAc(b1-2)Man(a1-3)[Gal(b1-4)GlcNAc(b1-3)Gal(b1-4)GlcNAc(b1-2)Man(a1-6)]Man(b1-4)GlcNAc(b1-4)GlcNAc
# Procedure, shortened: as §1
# [33] = target: Gal(b1-4)GlcNAc(b1-3)Gal(b1-4)GlcNAc(b1-2)Man(a1-3)[Gal(b1-4)GlcNAc(b1-3)Gal(b1-4)GlcNAc(b1-2)Man(a1-6)]Man(b1-4)GlcNAc(b1-4)[Fuc(a1-6)]GlcNAc
# Procedure, shortened: as §1
binder,measurement,setting,value
B1,glycan array binding signal (z-score),[1],-0.28
same,glycan array binding signal (z-score),[2],-0.299
same,glycan array binding signal (z-score),[3],-0.266
same,glycan array binding signal (z-score),[4],-0.249
same,glycan array binding signal (z-score),[5],-0.325
same,glycan array binding signal (z-score),Gal(b1-4)Gal,-0.317
same,glycan array binding signal (z-score),[6],0.155
same,glycan array binding signal (z-score),[7],-0.273
same,glycan array binding signal (z-score),Gal(b1-4)Glc,-0.283
same,glycan array binding signal (z-score),Gal(b1-4)Glc6S,0.086
same,glycan array binding signal (z-score),Gal(b1-4)GlcNAc,-0.075
same,glycan array binding signal (z-score),[8],-0.291
same,glycan array binding signal (z-score),Gal(b1-4)GlcNAc(b1-2)Man,-0.225
same,glycan array binding signal (z-score),[9],-0.318
same,glycan array binding signal (z-score),[10],-0.292
same,glycan array binding signal (z-score),[11],-0.306
same,glycan array binding signal (z-score),[12],-0.284
same,glycan array binding signal (z-score),[13],-0.278
same,glycan array binding signal (z-score),[14],-0.261
same,glycan array binding signal (z-score),[15],-0.27
same,glycan array binding signal (z-score),[16],-0.242
same,glycan array binding signal (z-score),[17],-0.316
same,glycan array binding signal (z-score),[18],-0.257
same,glycan array binding signal (z-score),[19],-0.256
same,glycan array binding signal (z-score),[20],-0.313
same,glycan array binding signal (z-score),[21],-0.274
same,glycan array binding signal (z-score),[22],-0.266
same,glycan array binding signal (z-score),[23],-0.304
same,glycan array binding signal (z-score),[24],-0.272
same,glycan array binding signal (z-score),[25],-0.24
same,glycan array binding signal (z-score),[26],-0.277
same,glycan array binding signal (z-score),[27],-0.268
same,glycan array binding signal (z-score),[28],-0.304
same,glycan array binding signal (z-score),[29],-0.281
same,glycan array binding signal (z-score),[30],-0.284
same,glycan array binding signal (z-score),[31],-0.278
same,glycan array binding signal (z-score),[32],-0.262
same,glycan array binding signal (z-score),[33],-0.255
